The supplement of paper PMC4967469

How the values were obtained:
Test in all cases: Viability of human cancer cell lines after 72 h of drug (GDSC screen)
Obatoclax mesylate = compound: COC1=CC(c2cc3ccccc3[nH]2)=N/C1=C\c1[nH]c(C)cc1C [Obatoclax mesylate]; conditions: top dose 16 µM
Description: (§1)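 Human cancer cell lines in 384-well plates, medium with 10% serum, drug for 72 h over a 256-fold dose range (nine 2-fold or five 4-fold steps up to the top dose). Adherent lines were fixed and stained with the nucleic acid dye Syto60, suspension lines read with resazurin; signal relative to control wells, capped at 0 and 100%. One two-parameter sigmoid per drug and line, fitted in a mixed model over all curves with the slope shared within a line.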

CP724714 = compound: COCC(=O)NC/C=C/c1ccc2ncnc(Nc3ccc(Oc4ccc(C)nc4)c(C)c3)c2c1 [CP724714]; conditions: top dose 10.24 µM; top dose inferred
Description: as §1

STF-62247 = compound: Cc1cccc(Nc2nc(-c3ccncc3)cs2)c1 [STF-62247]; conditions: top dose 10.24 µM; top dose inferred
Description: as §1

CX-5461 = compound: Cc1cnc(CNC(=O)c2c(=O)c3ccc(N4CCCN(C)CC4)nc3n3c2sc2ccccc23)cn1 [CX-5461]; conditions: top dose 10.24 µM; top dose inferred
Description: as §1

Row | Cell Line | AUC (Obatoclax mesylate) | IC50 (Obatoclax mesylate) | AUC (CP724714) | IC50 (CP724714) | AUC (STF-62247) | IC50 (STF-62247) | AUC (CX-5461) | IC50 (CX-5461)
1 | OSC-20 (head and neck, adherent) | 0.137 | < 0.0625 µM | 0.945 | > 10.2 µM | 0.97 | > 10.2 µM | 0.909 | > 10.2 µM
2 | OV-90 (ovary, adherent) | 0.393 | 0.467 µM | 0.966 | > 10.2 µM | 0.973 | > 10.2 µM | 0.979 | > 10.2 µM
3 | OVCAR-3 (ovary, adherent) | 0.402 | 0.523 µM | 0.987 | > 10.2 µM | 0.987 | > 10.2 µM | 0.987 | > 10.2 µM
4 | OVCAR-5 (ovary, adherent) | 0.395 | 0.484 µM | 0.981 | > 10.2 µM | 0.981 | > 10.2 µM | 0.969 | > 10.2 µM
5 | OVCAR-8 (ovary, adherent) | 0.109 | 0.0654 µM | 0.981 | > 10.2 µM | 0.982 | > 10.2 µM | 0.552 | 0.871 µM
6 | OVISE (ovary, adherent) | 0.351 | 0.337 µM | 0.959 | > 10.2 µM | 0.91 | > 10.2 µM | 0.853 | > 10.2 µM
7 | OVKATE (ovary, adherent) | 0.828 | > 16 µM | 0.974 | > 10.2 µM | 0.924 | > 10.2 µM | 0.922 | > 10.2 µM
8 | OVMIU (ovary, adherent) | 0.309 | 0.253 µM | 0.849 | > 10.2 µM | 0.959 | > 10.2 µM | 0.71 | 2.93 µM
9 | OVTOKO (ovary, adherent) | 0.316 | 0.264 µM | 0.936 | > 10.2 µM | 0.905 | > 10.2 µM | 0.922 | > 10.2 µM
10 | P12-ICHIKAWA (T-cell lymphoblastic leukaemia, suspension) | 0.13 | 0.106 µM | 0.985 | > 10.2 µM | 0.92 | 9.44 µM | 0.389 | 0.341 µM
11 | PA-1 (ovary, adherent) | 0.128 | 0.102 µM | 0.99 | > 10.2 µM | 0.907 | 8.55 µM | 0.345 | 0.264 µM
12 | PA-TU-8902 (pancreas, adherent) | 0.418 | 0.573 µM | 0.98 | > 10.2 µM | 0.956 | > 10.2 µM | 0.827 | 7.74 µM

By IC50 is meant the dose at which the fit gives 50% viability; a limit (>, <) means that the fit lies beyond the doses tested. The AUC spans the tested range (256-fold, ending at the top dose) of the same fit; values near 1 show little effect. For part of these data: Where the top dose is marked as inferred, it is not printed in the source and was worked back from the curve model.
